# Legend:
# [1] = molecular target: T1, purified mutant MGL (mut-MGLL 11-313 L179S L186S) (Homo sapiens, UniProt Q99685, L169S/L176S); experiment: biochemical; conditions: Ex. 4 Kd, ThermoFluor
# T1 sequence (Q99685 1-303 L169S/L176S): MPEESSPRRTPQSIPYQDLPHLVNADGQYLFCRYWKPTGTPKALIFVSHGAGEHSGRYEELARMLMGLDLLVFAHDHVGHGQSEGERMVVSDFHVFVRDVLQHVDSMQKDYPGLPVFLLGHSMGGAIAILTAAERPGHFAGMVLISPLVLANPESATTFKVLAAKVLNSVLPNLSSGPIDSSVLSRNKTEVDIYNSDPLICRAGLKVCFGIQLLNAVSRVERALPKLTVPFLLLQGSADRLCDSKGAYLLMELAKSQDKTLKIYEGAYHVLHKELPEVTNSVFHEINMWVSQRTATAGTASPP
# [2] = molecular target: T1, purified mutant MGL (mut-MGLL 11-313 L179S L186S); experiment: biochemical; conditions: Ex. 3 (mutant) IC50, mutant MGL (mut-MGLL 11-313 L179S L186S)
smiles,measurement,setting,value
"O=C(c1ccc(-c2ccccc2)c(F)c1)N1CC(N2CCN(c3ccccn3)CC2)C1 [compound 60, 1-{1-[(2-Fluorobiphenyl-4-yl)carbonyl]azetidin-3-yl}-4-pyridin-2-ylpiperazine]",Kd,[1],313 nM
same,IC50,[2],450 nM
"CN(CC1CCCCC1)c1ccc(CCC(=O)N2CC(N3CCN(c4ccccn4)CC3)C2)cc1 [compound 40, N-(Cyclohexylmethyl)-N-methyl-4-{3-oxo-3-[3-(4-pyridin-2-ylpiperazin-1-yl)azetidin-1-yl]propyl}aniline]",Kd,[1],451 nM
same,IC50,[2],78 nM
"CCCCc1ccc(C(=O)N2CC(N3CCN(c4ccccn4)CC3)C2)cc1 [compound 35, 1-{1-[(4-Butylphenyl)carbonyl]azetidin-3-yl}-4-pyridin-2-ylpiperazine]",Kd,[1],373 nM
same,IC50,[2],55 nM
"CCOc1cccc(/C=C/C(=O)N2CC(N3CCN(c4ccccn4)CC3)C2)c1 [compound 113, 1-{1-[(2E)-3-(3-Ethoxyphenyl)prop-2-enoyl]azetidin-3-yl}-4-pyridin-2-ylpiperazine]",Kd,[1],4000 nM
same,IC50,[2],7100 nM
"O=C(c1ccc(-c2cccc(C(F)(F)F)c2)o1)N1CC(N2CCN(c3ccccn3)CC2)C1 [compound 80, 1-Pyridin-2-yl-4-[1-({5-[3-(trifluoromethyl)phenyl]furan-2-yl}carbonyl)azetidin-3-yl]piperazine]",Kd,[1],12500 nM
same,IC50,[2],1750 nM
"COc1ccc(C(=O)N2CC(N3CCN(c4ncccn4)CC3)C2)cc1I [compound 38, 2-(4-{1-[(3-Iodo-4-methoxyphenyl)carbonyl]azetidin-3-yl}piperazin-1-yl)pyrimidine]",Kd,[1],192 nM
same,IC50,[2],63 nM
"O=C(c1ccc(OCc2ccccc2)cc1)N1CC(N2CCN(c3ncccc3I)CC2)C1 [compound 118, 1-(1-{[4-(Benzyloxy)phenyl]carbonyl}azetidin-3-yl)-4-(3-iodopyridin-2-yl)piperazine]",Kd,[1],> 76700 nM
same,IC50,[2],2330 nM
"O=C(c1ccc(N2C(=O)c3ccccc3C2=O)cc1)N1CC(N2CCN(c3ccccn3)CC2)C1 [compound 76, 2-(4-{[3-(4-Pyridin-2-ylpiperazin-1-yl)azetidin-1-yl]carbonyl}phenyl)-1H-isoindole-1,3(2H)-dione]",Kd,[1],3850 nM
same,IC50,[2],1360 nM
"O=C(c1ccc2c(c1)CCCN2c1ccc(C(F)(F)F)cc1)N1CC(N2CCN(c3ccc(C(F)(F)F)cc3)CC2)C1 [compound 134, 1-[4-(Trifluoromethyl)phenyl]-6-[(3-(4-[4-(trifluoromethyl)phenyl]piperazin-1-yl}azetidin-1-yl)carbonyl]-1,2,3,4-tetrahydroquinoline]",Kd,[1],> 31200 nM
same,IC50,[2],4290 nM
"O=C(c1ccc(-c2ccccc2)cc1)N1CC(N2CCN(c3ccc(Br)cn3)CC2)C1 [compound 85, 1-[1-(Biphenyl-4-ylcarbonyl)azetidin-3-yl]-4-(5-bromopyridin-2-yl)piperazine]",Kd,[1],4540 nM
same,IC50,[2],3450 nM
"O=C(c1ccc(-c2ccccc2)cc1)N1CC(N2CCN(c3nc4ccccc4o3)CC2)C1 [compound 90, 2-(4-[1-(Biphenyl-4-ylcarbonyl)azetidin-3-yl]piperazin-1-yl}-1,3-benzoxazole]",Kd,[1],769 nM
same,IC50,[2],4580 nM
"CSc1ccccc1N1CCN(C2CN(C(=O)c3ccc(-c4ccccc4)cc3)C2)CC1 [compound 91, 1-[1-(Biphenyl-4-ylcarbonyl)azetidin-3-yl]-4-[2-(methylsulfanyl)phenyl]piperazine]",Kd,[1],6250 nM
same,IC50,[2],4660 nM
"O=C(c1ccc(C2CCCCC2)cc1)N1CC(N2CCN(c3ncccn3)CC2)C1 [Compound #13, 2-(4-{1-[(4-Cyclohexylphenyl)carbonyl]azetidin-3-yl}piperazin-1-yl)pyrimidine]",Kd,[1],10 nM
same,IC50,[2],< 13 nM
"CCN(CC)c1ccc(C(=O)N2CC(N3CCN(c4ccccn4)CC3)C2)cc1 [compound 37, N,N-Diethyl-4-{[3-(4-pyridin-2-ylpiperazin-1-yl)azetidin-1-yl]carbonyl}aniline]",Kd,[1],44 nM
same,IC50,[2],62 nM
"O=C(c1nc(-c2ccccc2)oc1C(F)(F)F)N1CC(N2CCN(c3ccccn3)CC2)C1 [compound 108, 1-(1-{[2-Phenyl-5-(trifluoromethyl)-1,3-oxazol-4-yl]carbonyl}azetidin-3-yl)-4-pyridin-2-ylpiperazine]",Kd,[1],25000 nM
same,IC50,[2],13300 nM
"O=C(c1ccc(-c2ccc(F)cc2)cc1)N1CC(N2CCN(c3ncccn3)CC2)C1 [compound 9, 2-(4-{1-[(4′-Fluorobiphenyl-4-yl)carbonyl]azetidin-3-yl}piperazin-1-yl)pyrimidine]",Kd,[1],8 nM
same,IC50,[2],9 nM
"O=C(c1cccc(Oc2ccccc2)c1)N1CC(N2CCN(c3ccccn3)CC2)C1 [compound 47, 1-{1-[(3-Phenoxyphenyl)carbonyl]azetidin-3-yl}-4-pyridin-2-ylpiperazine]",Kd,[1],1020 nM
same,IC50,[2],160 nM
"O=C(c1ccc(I)cc1)N1CC(N2CCN(c3ncccn3)CC2)C1 [compound 53, 2-(4-{1-[(4-Iodophenyl)carbonyl]azetidin-3-yl}piperazin-1-yl)pyrimidine]",Kd,[1],333 nM
same,IC50,[2],239 nM
"O=C(Nc1ccc(C(=O)N2CC(N3CCN(c4ccccn4)CC3)C2)cc1)C1CCCCC1 [compound 27, N-(4-{[3-(4-Pyridin-2-ylpiperazin-1-yl)azetidin-1-yl]carbonyl}phenyl)cyclohexanecarboxamide]",Kd,[1],55 nM
same,IC50,[2],34 nM
"CC(C)(C)c1ccc(CCC(=O)N2CC(N3CCN(c4ccccn4)CC3)C2)cc1 [compound 55, 1-{1-[3-(4-tert-Butylphenyl)propanoyl]azetidin-3-yl}-4-pyridin-2-ylpiperazine]",Kd,[1],364 nM
same,IC50,[2],271 nM
"NS(=O)(=O)c1ccc(-n2nc(C(=O)N3CC(N4CCN(c5ccccn5)CC4)C3)cc2-c2ccc(Cl)cc2)cc1 [compound 72, 4-[5-(4-Chlorophenyl)-3-{[3-(4-pyridin-2-ylpiperazin-1-yl)azetidin-1-yl]carbonyl}-1H-pyrazol-1-yl]benzenesulfonamide]",Kd,[1],476 nM
same,IC50,[2],967 nM
"O=C(c1ccc(-c2ccccc2Cl)cc1)N1CC(N2CCN(c3ncccn3)CC2)C1 [compound 8, 2-(4-{1-[(2′-Chlorobiphenyl-4-yl)carbonyl]azetidin-3-yl}piperazin-1-yl)pyrimidine]",Kd,[1],18 nM
same,IC50,[2],9 nM
"C[C@@H](C(=O)N1CC(N2CCN(c3ccccn3)CC2)C1)c1ccc(-c2ccccc2)c(F)c1 [compound 126, 1-{1-[(2R)-2-(2-Fluorobiphenyl-4-yl)propanoyl]azetidin-3-yl}-4-pyridin-2-ylpiperazine]",Kd,[1],> 76700 nM
same,IC50,[2],13200 nM
"CC(C)(C)C1CCC(C(=O)N2CC(N3CCN(c4ccccn4)CC3)C2)CC1 (centres unmarked) [compound 78, 1-{1-[(4-tert-Butylcyclohexyl)carbonyl]azetidin-3-yl}-4-pyridin-2-ylpiperazine]",Kd,[1],4580 nM
same,IC50,[2],1470 nM
"O=C(c1cccc(-c2ccc(F)cc2)c1)N1CC(N2CCN(c3ccccn3)CC2)C1 [compound 52, 1-{1-[(4′-Fluorobiphenyl-3-yl)carbonyl]azetidin-3-yl}-4-pyridin-2-ylpiperazine]",Kd,[1],1900 nM
same,IC50,[2],200 nM
"O=C(c1ccc(-c2ccccc2)cc1)N1CC(N2CCN(c3nccs3)CC2)C1 [compound 36, 1-[1-(Biphenyl-4-ylcarbonyl)azetidin-3-yl]-4-(1,3-thiazol-2-yl)piperazine]",Kd,[1],31 nM
same,IC50,[2],56 nM
"Cc1nc2cc(C(=O)N3CC(N4CCN(c5ncccn5)CC4)C3)ccc2n1C1CCCCC1 [compound 17, 1-Cyclohexyl-2-methyl-5-{[3-(4-pyrimidin-2-ylpiperazin-1-yl)azetidin-1-yl]carbonyl}-1H-benzimidazole]",Kd,[1],7 nM
same,IC50,[2],19 nM
"O=C(c1ccc2c(c1)CCCN2)N1CC(N2CCN(c3ccccn3)CC2)C1 [compound 97, 6-{[3-(4-Pyridin-2-ylpiperazin-1-yl)azetidin-1-yl]carbonyl}-1,2,3,4-tetrahydroquinoline]",Kd,[1],3570 nM
same,IC50,[2],5880 nM
"O=C(c1ccc(OCc2ccccc2)cc1)N1CC(N2CCN(c3ccccn3)CC2)C1 [compound 112, 1-(1-{[4-(Benzyloxy)phenyl]carbonyl}azetidin-3-yl)-4-pyridin-2-ylpiperazine]",Kd,[1],120 nM
same,IC50,[2],24 nM
"Cc1c(C(=O)N2CC(N3CCN(c4ccccn4)CC3)C2)oc2ccccc12 [compound 117, 1-{1-[(3-Methyl-1-benzofuran-2-yl)carbonyl]azetidin-3-yl}-4-pyridin-2-ylpiperazine]",Kd,[1],18200 nM
same,IC50,[2],10700 nM
"CN(C)c1ccc(C(=O)N2CC(N3CCN(c4ncccn4)CC3)C2)cc1 [compound 28, N,N-Dimethyl-4-{[3-(4-pyrimidin-2-ylpiperazin-1-yl)azetidin-1-yl]carbonyl}aniline]",Kd,[1],83 nM
same,IC50,[2],35 nM
"O=C(c1ccc(NCc2ccc(I)o2)cc1)N1CC(N2CCN(c3ncccn3)CC2)C1 [Compound #22, N-[(5-Iodofuran-2-yl)methyl]-4-{[3-(4-pyrimidin-2-ylpiperazin-1-yl)azetidin-1-yl]carbonyl} aniline]",Kd,[1],17 nM
same,IC50,[2],26 nM
"O=C(c1ccc(N2CCCC2)cc1)N1CC(N2CCN(c3ncccn3)CC2)C1 [Compound #2, 2-(4-{1-[(4-Pyrrolidin-1-ylphenyl)carbonyl]azetidin-3-yl}piperazin-1-yl)pyrimidine]",Kd,[1],3 nM
same,IC50,[2],< 5 nM
"O=C(C(Cc1ccccc1)c1ccccc1)N1CC(N2CCN(c3ccccn3)CC2)C1 (centres unmarked) [compound 103, 1-[1-(2,3-Diphenylpropanoyl)azetidin-3-yl]-4-pyridin-2-ylpiperazine]",Kd,[1],45600 nM
same,IC50,[2],9430 nM

# From patent US20130184251A1, “HETEROAROMATIC AND AROMATIC PIPERAZINYL AZETIDINYL AMIDES AS MONOACYLGLYCEROL LIPASE INHIBITORS” (Janssen Pharmaceutica, NV, priority 2009, published 2013)
